Laboratory results: the supplement of paper PMC7125110
± gives the standard error. Variants at the floor of the assay are shown more often than the library holds them.

B1: glmS ribozyme (parent)
chain: AUAAAAGCGCCAGAACUACAGAAAUGUAGUUGACGAGGAGGAGGUUUAUCGAAUUUUCGGCGGAUGCCUCCAAA

Legend:
Conditions in all cases: with glucosamine-6-phosphate
[1] = variants of: B1; assay: self-cleavage kobs at 640 uM GlcN6P; higher = faster cleavage; RNA array
Procedure, shortened: (§1)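 Weighted Michaelis–Menten fits across concentrations supplied kcat and KM, based on kobs from one- or two-exponential decay fits to normalised per-tile medians. The data came from barcoded ribozyme variants transcribed in situ by E. coli RNA polymerase on sequenced MiSeq chips and tracked at 37 °C by a hybridised Cy3 probe. Glucosamine-6-phosphate (40 μM to 10 mM) in HEPES/KCl/Mg(OAc)2 buffer was flowed in.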

[2] = variants of: B1; assay: self-cleavage kobs at 160 uM GlcN6P; higher = faster cleavage; RNA array
Procedure, shortened: as §1

[3] = variants of: B1; assay: self-cleavage kobs at 2500 uM GlcN6P; higher = faster cleavage; RNA array
Procedure, shortened: as §1

[4] = variants of: B1; assay: self-cleavage kobs at 10000 uM GlcN6P; higher = faster cleavage; RNA array
Procedure, shortened: as §1

## U45C C50A G62U G66C
[1]
  self-cleavage kobs at 640 uM GlcN6P: < 1e-05 s⁻¹

## U45G G60A
[1]
  self-cleavage kobs at 640 uM GlcN6P: < 1e-05 s⁻¹
[2]
  self-cleavage kobs at 160 uM GlcN6P: < 1e-05 s⁻¹
[3]
  self-cleavage kobs at 2500 uM GlcN6P: < 1e-05 s⁻¹

## U46C G63A
[1]
  self-cleavage kobs at 640 uM GlcN6P: < 1e-05 s⁻¹
[3]
  self-cleavage kobs at 2500 uM GlcN6P: < 1e-05 s⁻¹
[4]
  self-cleavage kobs at 10000 uM GlcN6P: < 1e-05 s⁻¹

## U46C U49G G59C G66C
[1]
  self-cleavage kobs at 640 uM GlcN6P: < 1e-05 s⁻¹

## U46G G63A
[1]
  self-cleavage kobs at 640 uM GlcN6P: < 1e-05 s⁻¹
[2]
  self-cleavage kobs at 160 uM GlcN6P: < 1e-05 s⁻¹
[3]
  self-cleavage kobs at 2500 uM GlcN6P: < 1e-05 s⁻¹

## U47A G59C C71A
[1]
  self-cleavage kobs at 640 uM GlcN6P: < 1e-05 s⁻¹

## U47C A52U
[1]
  self-cleavage kobs at 640 uM GlcN6P: 3.84e-05 ± 1.6e-05 s⁻¹
[3]
  self-cleavage kobs at 2500 uM GlcN6P: 0.000145 ± 2.3e-05 s⁻¹
[4]
  self-cleavage kobs at 10000 uM GlcN6P: 0.000231 ± 4.7e-05 s⁻¹

## U47C U49G
[1]
  self-cleavage kobs at 640 uM GlcN6P: 6.46e-05 ± 1.7e-05 s⁻¹
[3]
  self-cleavage kobs at 2500 uM GlcN6P: 0.000146 ± 3.2e-05 s⁻¹
[4]
  self-cleavage kobs at 10000 uM GlcN6P: 0.000169 ± 3.6e-05 s⁻¹

## A48G C70G
[1]
  self-cleavage kobs at 640 uM GlcN6P: 8.57e-05 ± 1.8e-05 s⁻¹
[3]
  self-cleavage kobs at 2500 uM GlcN6P: 7.26e-05 ± 1.6e-05 s⁻¹
[4]
  self-cleavage kobs at 10000 uM GlcN6P: 5.25e-05 ± 9.4e-06 s⁻¹

## A48G U49A
[1]
  self-cleavage kobs at 640 uM GlcN6P: < 1e-05 s⁻¹
[4]
  self-cleavage kobs at 10000 uM GlcN6P: < 1e-05 s⁻¹

## A48G U57G
[1]
  self-cleavage kobs at 640 uM GlcN6P: < 1e-05 s⁻¹
[2]
  self-cleavage kobs at 160 uM GlcN6P: < 1e-05 s⁻¹

## A48U A53C C68G C71G
[1]
  self-cleavage kobs at 640 uM GlcN6P: 9.77e-05 ± 3.4e-05 s⁻¹

## U49A U55C C71G
[1]
  self-cleavage kobs at 640 uM GlcN6P: < 1e-05 s⁻¹

## U49A U56C
[1]
  self-cleavage kobs at 640 uM GlcN6P: < 1e-05 s⁻¹
[3]
  self-cleavage kobs at 2500 uM GlcN6P: < 1e-05 s⁻¹

## U49G A52C A53G U55C C61A
[1]
  self-cleavage kobs at 640 uM GlcN6P: < 1e-05 s⁻¹

## U49G G51A A52G G60C
[1]
  self-cleavage kobs at 640 uM GlcN6P: < 1e-05 s⁻¹

## U49G G51C C58A
[1]
  self-cleavage kobs at 640 uM GlcN6P: < 1e-05 s⁻¹

## C50A A52U
[1]
  self-cleavage kobs at 640 uM GlcN6P: < 1e-05 s⁻¹
[2]
  self-cleavage kobs at 160 uM GlcN6P: < 1e-05 s⁻¹
[3]
  self-cleavage kobs at 2500 uM GlcN6P: < 1e-05 s⁻¹
[4]
  self-cleavage kobs at 10000 uM GlcN6P: < 1e-05 s⁻¹

## C50U A53C
[1]
  self-cleavage kobs at 640 uM GlcN6P: < 1e-05 s⁻¹

## A52C A53C
[1]
  self-cleavage kobs at 640 uM GlcN6P: < 1e-05 s⁻¹
[4]
  self-cleavage kobs at 10000 uM GlcN6P: < 1e-05 s⁻¹

## A53C C67G C71G
[1]
  self-cleavage kobs at 640 uM GlcN6P: < 1e-05 s⁻¹

## A53G C61G G63U
[1]
  self-cleavage kobs at 640 uM GlcN6P: < 1e-05 s⁻¹
[3]
  self-cleavage kobs at 2500 uM GlcN6P: < 1e-05 s⁻¹

## A53G U55A G66U
[1]
  self-cleavage kobs at 640 uM GlcN6P: 0.000436 ± 9.4e-05 s⁻¹
[2]
  self-cleavage kobs at 160 uM GlcN6P: 0.000163 ± 4.6e-05 s⁻¹
[3]
  self-cleavage kobs at 2500 uM GlcN6P: 0.000351 ± 0.00011 s⁻¹

## A53U U55G C61A G62C
[1]
  self-cleavage kobs at 640 uM GlcN6P: < 1e-05 s⁻¹

## A53U U69G
[1]
  self-cleavage kobs at 640 uM GlcN6P: 4.69e-05 ± 1.2e-05 s⁻¹
[2]
  self-cleavage kobs at 160 uM GlcN6P: 6.15e-05 ± 1.2e-05 s⁻¹
[3]
  self-cleavage kobs at 2500 uM GlcN6P: 8.29e-05 ± 9.4e-06 s⁻¹
[4]
  self-cleavage kobs at 10000 uM GlcN6P: 4.84e-05 ± 1.2e-05 s⁻¹

## U54G U55C U56G G59C U69G
[1]
  self-cleavage kobs at 640 uM GlcN6P: 0.000119 ± 4.3e-05 s⁻¹
[3]
  self-cleavage kobs at 2500 uM GlcN6P: 6.83e-05 ± 2.7e-05 s⁻¹

## U55G U65C C70U
[1]
  self-cleavage kobs at 640 uM GlcN6P: 0.00017 ± 3.7e-05 s⁻¹
[3]
  self-cleavage kobs at 2500 uM GlcN6P: 0.000458 ± 0.00012 s⁻¹

## C58A C67U
[1]
  self-cleavage kobs at 640 uM GlcN6P: 6.4e-05 ± 1e-05 s⁻¹
[3]
  self-cleavage kobs at 2500 uM GlcN6P: 0.000161 ± 2e-05 s⁻¹
[4]
  self-cleavage kobs at 10000 uM GlcN6P: 0.000182 ± 1.7e-05 s⁻¹

## C58A C71U
[1]
  self-cleavage kobs at 640 uM GlcN6P: 7.43e-05 ± 7.2e-06 s⁻¹
[2]
  self-cleavage kobs at 160 uM GlcN6P: 4.42e-05 ± 1.2e-05 s⁻¹
[3]
  self-cleavage kobs at 2500 uM GlcN6P: 0.000183 ± 1.6e-05 s⁻¹
